About 16,000 (7.3%) of roughly 220,000 compounds were called active. Inconclusive means that the source gave no clear call. Such entries were picked first, then a sample of the others. Calls come from the whole dose curve; as a rule, active = well fitted inhibition curve with a large enough effect (not every such curve was filed as active); inconclusive = small, poorly fitted or top-dose-only effect, or another doubt; inactive = no such curve, though single readings can be large or run the other way. Where the call is inconclusive, the potency comes from a doubtful curve fit.
Molecular target: Aldehyde dehydrogenase 1A1 (Homo sapiens) (UniProt P00352)
Experiment: qHTS Assay for Inhibitors of Aldehyde Dehydrogenase 1 (ALDH1A1);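 for activity, negative = inhibition: plate controls were no enzyme wells and a reference inhibitor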
Conditions: Purified ALDH1A1, NADH fluorescence, propionaldehyde substrate; series mostly up to 75.3 µM; activity, negative = inhibition: at the top concentration
Potency is the fitted concentration of half-maximal effect; tags give direction and shape of the fitted curve.

Sequence of UniProt P00352 (P00352 whole entry, looked up): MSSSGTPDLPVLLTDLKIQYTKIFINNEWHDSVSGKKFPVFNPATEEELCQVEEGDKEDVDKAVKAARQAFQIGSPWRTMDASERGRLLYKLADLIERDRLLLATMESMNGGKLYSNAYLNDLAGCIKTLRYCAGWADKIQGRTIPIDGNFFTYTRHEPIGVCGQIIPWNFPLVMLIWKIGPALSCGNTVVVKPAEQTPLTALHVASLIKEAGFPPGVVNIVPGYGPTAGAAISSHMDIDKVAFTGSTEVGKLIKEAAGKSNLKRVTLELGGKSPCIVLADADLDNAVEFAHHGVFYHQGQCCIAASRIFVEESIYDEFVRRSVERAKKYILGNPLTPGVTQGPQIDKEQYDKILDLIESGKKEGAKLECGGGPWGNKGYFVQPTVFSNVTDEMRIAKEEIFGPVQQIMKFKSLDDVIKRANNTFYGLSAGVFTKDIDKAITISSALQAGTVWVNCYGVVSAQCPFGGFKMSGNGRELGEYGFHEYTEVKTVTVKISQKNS

Potency, active:
CCn1c(C)cc(=S)c2ccccc21 3.98 µM
CCOC(=O)C1=C(C)c2ccccc2N(C(=O)OC)C1(C)C(=O)OCC (stereo not given) 31.6 µM
Cc1ccsc1-c1n[nH]c(=S)n1CC(C)C 25.1 µM
O=C1C2C3C=CC(C2C(=O)N1C1CCCCC1)C1C2C(=O)N(C4CCCCC4)C(=O)C2C31 (stereo not given) 1.41 µM

Potency, inconclusive:
COc1ccc(-c2cn3cccnc3n2)cc1NC(=O)c1cccs1 39.8 µM [inhibitor, single point]
COc1ccc(CNC(=O)CCCN2C(=O)c3ccccc3C2=O)cc1 20 µM [inhibitor, partial curve]
COCCNc1nc2ccccc2nc1NS(=O)(=O)c1ccc(C)cc1C 28.2 µM [inhibitor, partial curve]
CC(=O)Oc1ccc(Cn2cnc3cc4ccccc4cc32)cc1 25.1 µM [inhibitor, single point]
COc1ccc(-c2ccc(-c3nnn(CC(=O)N4CCOCC4)n3)cc2)cc1 35.5 µM [inhibitor, partial curve]
Cc1nc(SCC(=O)NC2CCCC2)[nH]c(=O)c1Cc1ccccc1 6.31 µM [inhibitor, partial curve]
CCCCSc1nc(C)cc(C)c1S(=O)(=O)c1ccccc1C 12.6 µM [inhibitor, partial curve]
COC(=O)N1CCN(c2ccc(C(C)=O)cc2)CC1 35.5 µM [inhibitor, single point]
Cc1ccc(C)c2[nH]c(=O)c(CN(Cc3ccco3)C(=O)Nc3ccccc3)cc12 12.6 µM [inhibitor, partial curve]
COc1cc2c(cc1NC(=O)C(C)Sc1cccc[n+]1[O-])oc1ccccc12 (stereo not given) 39.8 µM [inhibitor, single point]
CCOc1cnc(-c2c(-c3ccccc3Cl)noc2C)o1 28.2 µM [inhibitor, single point]
COc1ccc(-c2nnc(SCC(=O)N3CCc4ccccc4C3)o2)cc1 39.8 µM [inhibitor, single point]
C=CCn1c(CCNC(=O)c2cccs2)nnc1SCC(=O)c1ccc(Br)cc1 2.82 µM [inhibitor, partial curve]
CCOc1ccc(C(=O)Nc2cccc(NC(=O)c3cccs3)c2)cc1[N+](=O)[O-] 31.6 µM [inhibitor, partial curve]
Cc1cc(C)c2nc(-c3ccccn3)cc(C(=O)NCCc3ccc(S(N)(=O)=O)cc3)c2c1 39.8 µM [inhibitor, single point]
COc1ccccc1/C=C\C=N\NC(=O)c1ccco1 39.8 µM [inhibitor, single point]
Nc1ncnc2nc(SCCc3ccccc3)[nH]c12 25.1 µM [inhibitor, partial curve]
N#C/C(=C/c1ccc(-c2ccccc2)o1)c1nc(-c2cccs2)cs1 2.82 µM [inhibitor, single point]
O=C(CN(Cc1cccs1)S(=O)(=O)c1ccc(S(=O)(=O)NC2CCCCC2)cc1)Nc1ccccc1 12.6 µM [inhibitor, partial curve]
CCOc1ccc2nc(NS(=O)(=O)c3ccc4c(c3)n(C)c(=O)n4C)sc2c1 17.8 µM [inhibitor, partial curve]
O=[N+]([O-])c1ccc(C(=S)N2CCCC2)cc1 35.5 µM [inhibitor, single point]
Cc1ccc(NC(=O)c2cc3c(s2)CCCC3)cc1 44.7 µM [inhibitor, single point]
COc1ccc(S(=O)(=O)Nc2ccccc2C(=O)Nc2nc(-c3ccc(F)cc3)cs2)cc1OC 28.2 µM [inhibitor, partial curve]
COc1ccc(S(=O)(=O)NCC(c2cccnc2)N2CCN(c3ccccc3OC)CC2)cc1C (stereo not given) 39.8 µM [inhibitor, single point]
CN(Cc1ccco1)C(=O)Cn1c(=O)oc2cc(S(=O)(=O)NCc3ccccc3)ccc21 44.7 µM [inhibitor, single point]
COc1ccc2c(c1)Cc1cc(N=[N+]([O-])c3ccc4c(c3)Cc3cc(OC)ccc3-4)ccc1-2 5.62 µM [inhibitor, single point]
CCN1CCC(Nc2ccnc3cc(Cl)ccc23)CC1 39.8 µM [inhibitor, single point]
Cc1ccccc1-c1nnn(CC(=O)NCc2ccc3c(c2)OCO3)n1 5.62 µM [inhibitor, full curve, poor fit]
N#Cc1ccccc1OCC(=O)Nc1c(C(=O)C2CC2)oc2ccccc12 39.8 µM [inhibitor, single point]

activity, negative = inhibition, inactive:
Nc1nc(SCC(=O)Nc2ccccc2)[nH]c(=O)c1-c1ccccc1 -1.6%
COc1cccc2nc3cc(C)c(C)cc3nc12 -10.6%
COc1ccc(OC)c(S(=O)(=O)N2CCC(C(=O)NCC3CCCO3)CC2)c1 (stereo not given) 12.1%
CC1(C)C(=O)Nc2ccccc2N1C(=O)COC(=O)c1cc(S(=O)(=O)N2CCOCC2)ccc1F -2.26%
Cc1ccc(-n2nnc(-c3ccnc4ccccc34)n2)cc1 -5.07%
O=C(Nc1ccc(Oc2ccccc2)cc1)C1CCCO1 (stereo not given) -5.76%
CC(=O)Nc1ccc(OS(=O)(=O)c2c(C)cc(C)cc2C)cc1 -1.08%
CCOC(=O)c1cnc2nc[nH]n2c1=O 4.21%
O=[N+]([O-])c1cccc(Cl)c1N1CCOCC1 -2.01%
COc1ccc(NC(=O)C2CCCN2C(=O)OC(C)(C)C)cc1 (stereo not given) 3.65%
N/C(=N\c1nc2ccccc2o1)NC(=O)c1ccc(F)cc1 8.97%
CC1(C)SC(=S)N(NC(=O)Nc2ccccc2)C1N(O)C(=O)Nc1ccccc1 (stereo not given) -10.1%
